Measured values taken from PubChem BioAssay AID493208 (National Center for Advancing Translational Sciences (NCATS), 2011).
In all, about 44,000 compounds went through this assay and about 340 (0.77%) were called active. Inconclusive results (about 5%) are left out. Calls come from the whole dose curve; as a rule, active = well fitted inhibition curve with a large enough effect; inconclusive = small, poorly fitted or top-dose-only effect; inactive = flat fitted curve, though single readings scatter. This is one part of the list.

experiment: Acumen qHTS Assay for Inhibitors of the mTORC1 Signaling Pathway in MEF (Tsc2-/-, p53-/-) Cells: Sytravon; settings: phospho-rpS6 immunofluorescence/PI, 24 h; series mostly up to 38.3 µM; activity change, negative = inhibition: at the top concentration;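 note: plate controls were DMSO for no effect and rapamycin for full effect; nearly all actives have a fitted effect of over 50% in size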
In short: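 Cell-based qHTS: Tsc2-/- p53-/- MEF, 24 h cpd, 37 °C; fix/perm, anti-phospho-S6 Alexa-488 + PI; Acumen 488 nm scan; pS6/PI ratio, % positive cells; rapamycin 7.5 nM = inhibition ref; PI count = viability.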

Activity change, negative = inhibition, inactive:
Cc1cc(Cl)ccc1NS(=O)(=O)c1c(C(=O)N2CCCCCC2)c(C)n(C)c1C 0%
Cc1ccc(C)c(Cn2c3ccccc3c3cnn(CC(=O)NC4CCCCCC4)c(=O)c32)c1 -0.334%
Cc1ccc(-c2c3c(=O)n(C)c(=O)n(C)c3c3c(-c4cccc(C)c4)nc4ccccc4n23)cc1 -7.39%
COC(=O)c1ccccc1NC(=O)c1ccc2c(c1)CCN2S(=O)(=O)c1ccc(Cl)cc1 2.04%
Cc1cc(C)c(S(=O)(=O)NCC2CCC(C(=O)NCCc3ccccc3)CC2)c(C)c1 (stereo not given) -5.31%
O=c1n(Cc2ccccc2)nc2n1-c1cc(Cl)ccc1OC2 -38.9%
Cc1c2cnn(-c3ccccc3)c(=O)c2c(C)n1CCCC(=O)Nc1cccc(F)c1 -5.11%
Cc1c(Cl)cccc1NC(=O)CSc1nc(=O)[nH]c2c1CCC2 -0.0524%
O=S(=O)(c1cccc(Cl)c1)n1c(/C=C/c2ccccc2Cl)nc2ccccc21 -10.6%
COc1ccc(CN(Cc2ccco2)C(=O)COc2ccccc2Cl)cc1 -1.55%
COc1ccc(-c2cc(OC(=O)c3cccc(Cl)c3)c3c(C)oc(C)c3c(=O)c2)cc1OC -5.84%
CC(NS(=O)(=O)c1ccc2c(c1)CCN2C(=O)CCCC(=O)O)c1ccccc1 (stereo not given) 1.2%
N#Cc1nc(/C=C/c2ccc(F)cc2)oc1N1CCCCCC1 2.33%
CCN(CC)c1ccc(NC(=O)Cn2nc3c(cc2=O)CCCC3)c(C)c1 -11.8%
CCc1c(C)sc(NC(=O)c2cc3nc(-c4ccc(OC)cc4)cc(C(F)(F)F)n3n2)c1C(=O)OC -10.6%
COc1cc(OC)cc(C(=O)N2CCN(C(=O)COc3ccc(C)cc3)CC2)c1 -7.24%
COc1cccc(-n2c(SCC(=O)Nc3ccc4c(c3)OCO4)nc3c([nH]c4ccccc43)c2=O)c1 3.5%
Cc1ccccc1NC(=O)CSc1nc(-c2cccs2)nc2cc(=O)[nH]n12 5.91%
COc1ccc(-n2nc(C(=O)Nc3cc(C)c(Cl)cc3OC)c3c4ccccc4n(C)c3c2=O)cc1 -3.18%
Cn1ccc2cc(S(=O)(=O)N3CCCC(C(=O)NCc4ccccc4F)C3)ccc21 (stereo not given) -12%
Cc1ccccc1-c1nc(CNC(=O)NC2CCCCC2)c(C)o1 10.5%
CC(C)c1ccc(C2CC(=O)N3CN(C4CCCCC4)CSC3=C2C#N)cc1 (stereo not given) -1.06%
COc1ccc(-n2ncc3c2ncn2nc(-c4ccc(OC)c(OC)c4)nc32)cc1 -1.01%
CC1=C(C(=O)Nc2ccccc2)C(c2ccc(Br)cc2)n2nc(CCCO)nc2N1 (stereo not given) 0.457%
CCCc1cc(=O)[nH]c(Nc2cc(Cl)cc(Cl)c2)n1 -0.0488%
COc1ccccc1N1CCN(C(=O)c2nn(C)c3c2CS(=O)(=O)c2ccccc2-3)CC1 -1.03%
COc1cccc(CNC(=O)CN2C(=O)COc3ccc(S(=O)(=O)N4CCCCC4)cc32)c1 -4.41%
CCn1cc2nc(SCc3cc(C)ccc3C)n(Cc3ccc(Cl)cc3)c(=O)c2n1 0%
Cc1nn(Cc2ccc(F)cc2)c(C)c1NC(=O)c1noc2c1CCc1ccccc1-2 -2.77%
Cn1cc(S(=O)(=O)N2CCCC2)cc1C(=O)Nc1ccc(F)cc1F 7.13%
CCOC(=O)c1ccc(NC(=O)Cc2noc3ccc(C)cc23)cc1 3.44%
Cc1ccc(-c2nc3sc(CCNC(=O)c4ccc(F)c(F)c4)c(C)n3n2)cc1 -6.03%
CC1=C(C(=O)Nc2ccccc2Br)C2(CCC(C)CC2)OC1=O (stereo not given) 1.72%
CCCCC12CN3CC(C)(CN(C1)C3c1ccc(OCc3ccccc3)cc1)C2=O (stereo not given) 0.921%
Cc1ccc(CNC(=O)CCCCCn2c(=O)c3sccc3n(CC(=O)N3CCCCC3C)c2=O)cc1 (stereo not given) 2.39%
O=C(C1CCN(S(=O)(=O)c2cccs2)CC1)N1CCN(c2ccccc2F)CC1 -10.1%
CCC(CC)C(=O)Nc1ccc(S(=O)(=O)N2CCC(c3nc4ccccc4s3)CC2)cc1 0.942%
Cc1nc(-c2ccc(S(=O)(=O)N3CCN(c4ccccc4F)CC3)cc2)co1 -1.87%
COc1ccc(C)cc1NC(=O)CN(C)S(=O)(=O)c1ccc2c(c1)c(=O)n(C)c(=O)n2C -0.187%
CCN(C(=O)Cn1c(C(=O)OC)cc2sccc21)c1cccc(C)c1 -6.29%
Cc1ccccc1NC(=O)c1sc2nc(-c3cc4ccccc4oc3=O)[nH]c(=O)c2c1C -22.9%
CCCn1cc(S(=O)(=O)c2ccc(C)c(C)c2)c(=O)c2cc(F)c(N3CCCCC3)cc21 -1.26%
CC(C)NC(=O)c1ccc(CSc2nc3ccncc3n2Cc2cccc(F)c2)cc1 -9.75%
CC(=O)Nc1cccc(NC(=O)CSc2nccn2Cc2ccccc2)c1 -27%
Cc1ccccc1-c1noc(-c2ccc(NCc3cccnc3)c([N+](=O)[O-])c2)n1 0.122%
CC1=C(c2ccc(C(C)C)cc2)S(=O)(=O)N=C1N1CCC(C(=O)NCc2ccc(C)o2)CC1 -4.46%
O=C(NC1CCCCC1)c1ccc(CSc2nc3cccnc3n2Cc2ccccc2)cc1 -8.29%
CC(=O)c1cccc(NC(=O)Cn2ccn3nc(-c4ccccc4)cc3c2=O)c1 0%
Cc1cc(Nc2cc(Cl)ccc2C)n2nc(-c3ccccc3)nc2n1 -1.89%
CCOC(=O)c1c(N)n(-c2ccc(OCC)cc2)c2nc3ccccc3nc12 1.13%
Cc1c(CC(=O)NCCc2ccccc2)c(=O)oc2c(C)c3occ(C(C)(C)C)c3cc12 2.81%
O=C(COc1ccccc1-c1nc(-c2ccccc2)no1)Nc1ccc([N+](=O)[O-])cc1 -0.0775%
Cc1ccc(CN(Cc2cccn2-c2nnc(N3CCCC3=O)s2)C(=O)Nc2ccccc2Cl)cc1 -5.51%
Cc1nc2c(-c3ccc(F)cc3)c(C)nn2c(C)c1CCC(=O)NCc1ccc(F)cc1 -11.3%
COc1ccc(OCCCn2c(C3CC(=O)N(c4ccc(F)cc4)C3)nc3ccccc32)cc1 (stereo not given) -4.41%
COc1ccc(NC(=O)c2nnn(-c3ccc(C(C)C)cc3)c2C)c(OC)c1 0.741%
CC(C)CCNC(=O)c1cc(-c2cccnc2)nc2ccc(S(=O)(=O)N3CCC(C)CC3)cc12 -1.34%
O=C(CSc1nc2c([nH]c3ccccc32)c(=O)n1-c1ccccc1)N1CCCCC1 -0.48%
COc1ccc(OC)c(-c2noc(N3CCN(c4cccc(C(F)(F)F)c4)CC3)n2)c1 0.251%
CCOc1ccc(-c2cc(C(=O)NCCc3ccc(C)cc3)c3ccccc3n2)cc1 5.27%
